Some of the results follow. Single values are uncertain, as repeats are few or missing.
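Further: cells treated in 1,536-well plates, then fixed and DAPI-stained, with nuclei counted from automated high-throughput microscope images.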

One assay has as its system IST-MEL1. Kind of assay: cell count relative to DMSO control; melanoma cells; higher = more viable cells. Particulars: library dose: standard library concentration; 72 h.
`CC[C@]1(O)C[C@H]2CN(CCc3c([nH]c4ccccc34)[C@@](C(=O)OC)(c3cc4c(cc3OC)N(C=O)[C@H]3[C@@](O)(C(=O)OC)[C@H](OC(C)=O)[C@]5(CC)C=CCN6CC[C@]43[C@@H]65)C2)C1` [vincristine] + CCc1ccc(CCOc2ccc(CC3SC(=O)NC3=O)cc2)nc1 [pioglitazone] (first compound 0.0005 µM, partner dose 10 µM): the cell count was 43.2%.

On to `Cc1cc(Nc2cc(N3CCN(C)CC3)nc(Sc3ccc(NC(=O)C4CC4)cc3)n2)n[nH]1` [Tozasertib] + COc1cc(Nc2ncc(F)c(Nc3ccc4c(n3)NC(=O)C(C)(C)O4)n2)cc(OC)c1OC [Tamatinib] (first compound 0.03 µM, partner dose 2 µM), for which the cell count was 79.7%.

Molecule `Cc1cc(Nc2cc(N3CCN(C)CC3)nc(Sc3ccc(NC(=O)C4CC4)cc3)n2)n[nH]1` [Tozasertib] + C[C@@H](Oc1cc(-c2cnn(C3CCNCC3)c2)cnc1N)c1c(Cl)ccc(F)c1Cl [Crizotinib] (first compound 0.03 µM, partner dose 1 µM) came in with a cell count of 85.2%.

`CC[C@]1(O)C[C@H]2CN(CCc3c([nH]c4ccccc34)[C@@](C(=O)OC)(c3cc4c(cc3OC)N(C=O)[C@H]3[C@@](O)(C(=O)OC)[C@H](OC(C)=O)[C@]5(CC)C=CCN6CC[C@]43[C@@H]65)C2)C1` [vincristine] + CN(NC(=O)CC(=O)NN(C)C(=S)c1ccccc1)C(=S)c1ccccc1 [STA4783] (first compound 0.0005 µM, partner dose 0.03 µM) gave a cell count of 30.4%.

In the case of `CC[C@]1(O)C[C@H]2CN(CCc3c([nH]c4ccccc34)[C@@](C(=O)OC)(c3cc4c(cc3OC)N(C=O)[C@H]3[C@@](O)(C(=O)OC)[C@H](OC(C)=O)[C@]5(CC)C=CCN6CC[C@]43[C@@H]65)C2)C1` [vincristine] + NC1(c2ccc(-c3nc4ccn5c(=O)[nH]nc5c4cc3-c3ccccc3)cc2)CCC1 [MK2206] (first compound 0.0005 µM, partner dose 2 µM), the cell count is 69.3%.

Take `CC[C@]1(O)C[C@H]2CN(CCc3c([nH]c4ccccc34)[C@@](C(=O)OC)(c3cc4c(cc3OC)N(C=O)[C@H]3[C@@](O)(C(=O)OC)[C@H](OC(C)=O)[C@]5(CC)C=CCN6CC[C@]43[C@@H]65)C2)C1` [vincristine] + O=C(O)c1ccc(-c2c[nH]c3ncc(-c4ccccc4)cc23)cc1C1CCCC1 [GSK650394] (first compound 0.0005 µM, partner dose 0.8 µM): the cell count was determined as 30.1%.

As for `CC[C@]1(O)C[C@H]2CN(CCc3c([nH]c4ccccc34)[C@@](C(=O)OC)(c3cc4c(cc3OC)N(C=O)[C@H]3[C@@](O)(C(=O)OC)[C@H](OC(C)=O)[C@]5(CC)C=CCN6CC[C@]43[C@@H]65)C2)C1` [vincristine] + COc1ccc(C2=N[C@@H](c3ccc(Cl)cc3)[C@@H](c3ccc(Cl)cc3)N2C(=O)N2CCNC(=O)C2)c(OC(C)C)c1 [Nutlin-3] (first compound 0.0005 µM, partner dose 0.5 µM), the cell count turned out to be 89.3%.

`N#CC[C@H](C1CCCC1)n1cc(-c2ncnc3[nH]ccc23)cn1` [ruxolitinib] + CC(=O)c1c(C)c2cnc(Nc3ccc(N4CCNCC4)cn3)nc2n(C2CCCC2)c1=O [palbociclib] (first compound 5 µM, partner dose 0.2 µM) yielded a cell count of 67.3%.

Another assay concerns LB2518-MEL. Described as above. The settings on record: library dose: standard library concentration; 72 h.
Turning to `Cc1cc(Nc2cc(N3CCN(C)CC3)nc(Sc3ccc(NC(=O)C4CC4)cc3)n2)n[nH]1` [Tozasertib] + CC(=O)O[C@@]12CO[C@@H]1C[C@H](O)[C@@]1(C)C(=O)[C@H](O)C3=C(C)[C@@H](OC(=O)[C@H](O)[C@@H](NC(=O)OC(C)(C)C)c4ccccc4)C[C@@](O)([C@@H](OC(=O)c4ccccc4)[C@H]21)C3(C)C [Docetaxel] (first compound 0.03 µM, partner dose 0.0005 µM), the cell count came to 54.4%.

For the molecule `CC[C@]1(O)C[C@H]2CN(CCc3c([nH]c4ccccc34)[C@@](C(=O)OC)(c3cc4c(cc3OC)N(C=O)[C@H]3[C@@](O)(C(=O)OC)[C@H](OC(C)=O)[C@]5(CC)C=CCN6CC[C@]43[C@@H]65)C2)C1` [vincristine] + Oc1nc(-c2ccc(C(F)(F)F)cc2)nc2c1CSCC2 [XAV939] (first compound 0.0005 µM, partner dose 10 µM), the cell count came to 77.6%.

`CC[C@]1(O)C[C@H]2CN(CCc3c([nH]c4ccccc34)[C@@](C(=O)OC)(c3cc4c(cc3OC)N(C=O)[C@H]3[C@@](O)(C(=O)OC)[C@H](OC(C)=O)[C@]5(CC)C=CCN6CC[C@]43[C@@H]65)C2)C1` [vincristine] + c1cc(-c2cnn3cc(-c4ccc(OCCN5CCCCC5)cc4)cnc23)ccn1 [Dorsomorphin] (first compound 0.0005 µM, partner dose 2 µM) registered a cell count of 42.6%.

In turn, `Cc1cc(Nc2cc(N3CCN(C)CC3)nc(Sc3ccc(NC(=O)C4CC4)cc3)n2)n[nH]1` [Tozasertib] + COc1ccc(-c2ccc3c(N4CCOCC4)nc(N4C[C@@H](C)O[C@@H](C)C4)nc3n2)cc1CO [KU0063794] (first compound 0.03 µM, partner dose 0.1 µM) registered a cell count of 74.4%.

As to `CC[C@]1(O)C[C@H]2CN(CCc3c([nH]c4ccccc34)[C@@](C(=O)OC)(c3cc4c(cc3OC)N(C=O)[C@H]3[C@@](O)(C(=O)OC)[C@H](OC(C)=O)[C@]5(CC)C=CCN6CC[C@]43[C@@H]65)C2)C1` [vincristine] + O=C(Nc1cc(C(F)(F)F)cc(C(F)(F)F)c1)c1cc(Cl)ccc1O [IMD0354] (first compound 0.0005 µM, partner dose 0.08 µM), the cell count was determined as 76.9%.

Turning to `N#CC[C@H](C1CCCC1)n1cc(-c2ncnc3[nH]ccc23)cn1` [ruxolitinib] + Nc1cccc2c1CN(C1CCC(=O)NC1=O)C2=O [lenalidomide] (first compound 5 µM, partner dose 5 µM), the cell count is 138%.

Turning to `CC[C@]1(O)C[C@H]2CN(CCc3c([nH]c4ccccc34)[C@@](C(=O)OC)(c3cc4c(cc3OC)N(C=O)[C@H]3[C@@](O)(C(=O)OC)[C@H](OC(C)=O)[C@]5(CC)C=CCN6CC[C@]43[C@@H]65)C2)C1` [vincristine] + COCC[n+]1c2c(n(Cc3cnccn3)c1C)C(=O)c1ccccc1C2=O [YM155] (first compound 0.0005 µM, partner dose 0.002 µM), the cell count came to 26.2%.

The molecule `Cc1cc(Nc2cc(N3CCN(C)CC3)nc(Sc3ccc(NC(=O)C4CC4)cc3)n2)n[nH]1` [Tozasertib] + O=C(CCCCCCC(=O)Nc1ccccc1)NO [vorinostat] (first compound 0.03 µM, partner dose 0.4 µM) had a cell count of 57.9%.

Regarding `N#CC[C@H](C1CCCC1)n1cc(-c2ncnc3[nH]ccc23)cn1` [ruxolitinib] + CN(c1ncccc1CNc1nc(Nc2ccc3c(c2)CC(=O)N3)ncc1C(F)(F)F)S(C)(=O)=O [PF562271] (first compound 5 µM, partner dose 0.4 µM), the cell count was determined as 98.7%.

In the case of `N#CC[C@H](C1CCCC1)n1cc(-c2ncnc3[nH]ccc23)cn1` [ruxolitinib] + CC(=O)O[C@@]12CO[C@@H]1C[C@H](O)[C@@]1(C)C(=O)[C@H](O)C3=C(C)[C@@H](OC(=O)[C@H](O)[C@@H](NC(=O)OC(C)(C)C)c4ccccc4)C[C@@](O)([C@@H](OC(=O)c4ccccc4)[C@H]21)C3(C)C [Docetaxel] (first compound 5 µM, partner dose 0.0005 µM), the cell count turned out to be 38.7%.

Molecule `N#CC[C@H](C1CCCC1)n1cc(-c2ncnc3[nH]ccc23)cn1` [ruxolitinib] + C=C(c1ccc(C(=O)O)cc1)c1cc2c(cc1C)C(C)(C)CCC2(C)C [Bexarotene] (first compound 5 µM, partner dose 10 µM) came in with a cell count of 119%.

Regarding `CC[C@]1(O)C[C@H]2CN(CCc3c([nH]c4ccccc34)[C@@](C(=O)OC)(c3cc4c(cc3OC)N(C=O)[C@H]3[C@@](O)(C(=O)OC)[C@H](OC(C)=O)[C@]5(CC)C=CCN6CC[C@]43[C@@H]65)C2)C1` [vincristine] + O=S(=O)(c1ccccc1)N(CC(F)(F)F)c1ccc(C(O)(C(F)(F)F)C(F)(F)F)cc1 [T0901317] (first compound 0.0005 µM, partner dose 7 µM), the cell count came to 78.7%.

Molecule `Cc1cc(Nc2cc(N3CCN(C)CC3)nc(Sc3ccc(NC(=O)C4CC4)cc3)n2)n[nH]1` [Tozasertib] + COc1ccc(C2=N[C@@H](c3ccc(Cl)cc3)[C@@H](c3ccc(Cl)cc3)N2C(=O)N2CCNC(=O)C2)c(OC(C)C)c1 [Nutlin-3] (first compound 0.03 µM, partner dose 0.5 µM) registered a cell count of 66.7%.

`CC[C@]1(O)C[C@H]2CN(CCc3c([nH]c4ccccc34)[C@@](C(=O)OC)(c3cc4c(cc3OC)N(C=O)[C@H]3[C@@](O)(C(=O)OC)[C@H](OC(C)=O)[C@]5(CC)C=CCN6CC[C@]43[C@@H]65)C2)C1` [vincristine] + CS(=O)(=O)c1ccc(C(=O)Nc2ccc(Cl)c(-c3ccccn3)c2)c(Cl)c1 [vismodegib] (first compound 0.0005 µM, partner dose 5 µM): the cell count is 67.6%.

Regarding `CC[C@]1(O)C[C@H]2CN(CCc3c([nH]c4ccccc34)[C@@](C(=O)OC)(c3cc4c(cc3OC)N(C=O)[C@H]3[C@@](O)(C(=O)OC)[C@H](OC(C)=O)[C@]5(CC)C=CCN6CC[C@]43[C@@H]65)C2)C1` [vincristine] + C#Cc1cccc(Nc2ncnc3cc(OCCOC)c(OCCOC)cc23)c1 [erlotinib] (first compound 0.0005 µM, partner dose 4 µM), the cell count stood at 25.3%.

For the origin of these results see the supplement of paper PMC4604168 (melanoma cell lines).
